{
  "source": "patent US8318813B2",
  "about": "“Method of treating binge eating disorder” (LCS Group, LLC, priority 2007, dated 2012)",
  "tested_on": "Patient with Major Depressive Disorders and Binge Eating Disorder",
  "assay": "Case report Patient 1: lisdexamfetamine dimesylate added to ZOLOFT",
  "details": "by the time of 70 mg daily, with 100 mg ZOLOFT",
  "data": [
    {"smiles": "CS(=O)(=O)O.CS(=O)(=O)O.C[C@@H](Cc1ccccc1)NC(=O)[C@@H](N)CCCCN", "note": "[lisdexamfetamine dimesylate, (2S)-2,6-diamino-N-[(1S)-1-methyl-2-phenylethyl]hexanamide dimethanesulfonate]", "values": [
      {"measurement": "symptoms of inattention, forgetfulness, procrastination and physical restlessness", "result": "significant improvement"}
    ]}
  ]
}
